# Source: the supplement of paper PMC11417369
# Some of the results follow.
# Tested on: PfAP2-HC AP2 domain (GST-tagged)
# Test: gcPBM binding intensity (ln(normalized median fluorescence intensity)); higher = stronger DNA binding
# Summary of the method: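 After 1 h on an Agilent 4 × 180k array of primer-extended double-stranded 36-bp intergenic genomic probes and negative controls, bound GST-tagged P. falciparum DNA-binding domains were detected with Alexa488 anti-GST antibody and scanned at 488 nm. The domains had been expressed in E. coli, and binding took place in 1× PBS with 1% milk, 0.2 mg/ml BSA, 0.5% salmon testes DNA and 0.03% Triton X-100. Binding intensity is the highest Masliner-normalised natural-log median intensity across replicate spots of either probe orientation.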
row,Sequence,gcPBM binding intensity (ln)
1,AAAAAAAAAAAAATCACACACAATATGAATTTATAG [CACACA_site601],10.1
2,AATACAATTTCTAGCACACAAAATATTATTATAATT [CACACA_site3223],9.92
3,TATAGAAGCGTTCACACACACACATACATACCCATA [CACACA_site4915],11.1
4,AAAAAACAATCTCATACACACTAGGGATTAATTATT [CACACA_site5051],9.87
5,TCCCTAAAAAATGATAAATGGAGACAATTCCGACAA [GTGCAC_negctrl_site209],9.44
6,TTATATATATTTAAATTTTATCTCACATATATATAT [TGCATGCA_negctrl_site275],9.83
7,ATGGATAACAATATGTGTACACATTTATATCTCCAC [XGTACX_site5457],9.85
8,AAGCATGGATATTTTACACACATTTCCACGTAACAA [CACACA_site3141],9.91
9,ATACATTTTTTTTATACGCACACGTCATACTTTTAA [CACACA_site1638],10.5
10,ATATAATAGAAGTGTACACACATATTTATGTCTGTA [CACACA_site3121],9.98
11,ACAAGACAGATATATACACACATACATACATACATA [CACACA_site7472],9.97
12,ATATTTATTTATATTACACACATGTGCAATTAAACT [CACACA_site6928],10
13,TTTCTTAAAAAAAAAAAAAAAAGAAGATAAATAAAA [CACACA_negctrl_site289],9.2
14,TTTAACTTATTCAATGCACACATTTTAATAAGATAT [CACACA_site1967],9.64
15,CTAGCAAATACATACACACACACACCGATACATATA [CACACA_site9164],10.7
16,ATATATAATAATATATGTACATAATATTTTTTTTTT [XGTACX_site1941],9.69
17,TAATGAAGATATATAACACACAAAAGTTATAAATAT [CACACA_site6678],9.96
18,GCCATTAATTTATACACACACATTAAAATTTTTTAT [CACACA_site4575],10
19,GCTATAAATACAGACGCACACATATACATACATATA [CACACA_site3329],10.2
20,TAATTATAAAAATAAAACAACCAAATTTGTTATATA [CACACA_negctrl_site750],9.58
21,TAATTTATAAATAATTGTACATAGTTTATTTAGATT [XGTACX_site4599],9.39
22,ATATATATAAAATAAAGTACCCGTAAAACCTATATG [XGTACX_site6937],9.74

row,Sequence,gcPBM binding intensity (ln)
1,AAAAAAAAAAAAAAAAAATAATAAAAAATAAAAAAA [GTGCAC_negctrl_site341],9.24
2,GACGACTATATTAATTGTACTCAATTTAAGCATAAT [XGTACX_site2750],9.58
3,TATGTTAATCCTATTTGTACATATAATCGAATTAAA [XGTACX_site7090],9.12
4,GAAAGGAAAAGTTGAACACACAAAGTAAACTATAAG [CACACA_site3535],9.82
5,TCATTCGAATAAATTGCACACATGACATCCGTTGTA [CACACA_site2587],9.77
6,AAAAAAAAAAAAAATATACACACTAATATATTTTTT [CACACA_site815],9.68
7,ATATATATATTAATTACACACAAAAAAAAAAAAAAA [CACACA_site1165],9.56
8,GTATAGAGAAAAAACTGTACTTTATATAAATATTTA [XGTACX_site3972],9.52
9,TATATACAGATATATACACACATATTTATATTTTAT [CACACA_site7734],9.92
10,TATTAATAATATAATAGTACTTTCACTGTAAATTTA [XGTACX_site6419],9.32
11,TATCCTACATTAACAAGTACAAAGAGATCCTACGTA [XGTACX_site4252],9.45
12,AAGAATATATAGGACACACATACAATAATAAATATA [CACACA_site4119],10.3
13,AACGCCACTTCAATGGCACACACCAATTATTTTTCA [CACACA_site1026],9.88
14,TTTCTCCATATTAAAGTGCATTAATAACAAAAATAA [GTGCAC_site9934],9.37
15,CAAGAACAAAAAATATGTACATATAATTATATATAT [XGTACX_site2082],9.78
16,CATATCTCTTATTAATGTACATTTTTAAAAGTAAAT [XGTACX_site2847],9.55
17,CTTTTTTTTATGAACAGTACAGAAATATATATATAC [XGTACX_site5613],9.44
18,TTTATATAATGGAAAAGTACTCAGGAAATTTATACA [XGTACX_site3635],9.53
19,TTGTTCCAATAAAATCGTACAATTAAACAACCAAAC [XGTACX_site5759],9.74
20,TTTTTTTCTATAATACACCAGAAAAAAAAATTAAAA [TGCATGCA_negctrl_site257],9.25
21,AGATTGAAATATAGTTGTACAAATATTTTAAAACAT [XGTACX_site3026],9.81
22,CAATCAACAAAACATACACACACATATATATATATA [CACACA_site8979],10.3

row,Sequence,gcPBM binding intensity (ln)
1,TTAAAATTAAAAATAGGTACACATATGAACAAGGAC [XGTACX_site1180],10.1
2,TTATATGATATATGACGTACATATTAATAACATCTA [XGTACX_site6716],9.51
3,TGTAATATTTTATAAAGTACATTATAATATAATTCA [XGTACX_site2961],9.39
4,TATAAAGCAACTGAAACACACAAATTTTTTTTTTTT [CACACA_site3218],9.91
5,ACTATTTTCTTCAAAACATGCACCACATAAACATAA [TGCATGCA_site200],9.58
6,ATTATTTATTTATGTGTGCGCATGTGTGTAAATATT,10.3
7,TTAAACATATATTAAGCACACACAAACAAAAAAACA [CACACA_site8816],10.2
8,AACATATTTTTTTGTTGTACTTACAATTATAAGCAT [XGTACX_site3056],9.58
9,TATACCAAATATATGGGTACACAAATATGTTTATTC [XGTACX_site8932],9.61
10,TAATTAATCGATTTACGCACATGAACAAAAGCACAT [CACACA_negctrl_site1287],9.77
11,AGAAAAAAAAAAAATGCACACATTTTCATTGTCAGT [CACACA_site1935],9.7
12,ATATATATATATATGTGTACATATTTTTTTTTTTTT [XGTACX_site3425],9.87
13,AAAAAACACAGACATACACACAAAAAGGTTATAAAT [CACACA_site4222],10.2
14,GTAAATATTAATAAAAGTACATATGTAGCATATGGA [XGTACX_site5219],9.89
15,CCTTTTTTATTTACAACACACGTAAAGGTTCAAATA [CACACA_site1741],9.52
16,ATTTTTTAAATGAGGCGTACACAAAAATATAATTAC [XGTACX_site7087],9.76
17,CTTAGATATAAAAATTGTACATACATATTTTTGACA [XGTACX_site2107],9.45
18,TATATATATATATATACACACACACTAATAAAAAAA [CACACA_site8426],11
19,TTTTTTTCGTAAAAAAAAATAATTATTAAATGAAGG [TGCATGCA_negctrl_site212],9.26
20,TATTATAAAATATACACATGCAAAAACAAAATTTAC [TGCATGCA_site1051],9.75
21,TATTTTTAATAAAAACGTACGGAATACAAAAAAAAT [XGTACX_site3477],9.77
22,TATATACATTGGTATACATGCATTCTCTTTCATACA [TGCATGCA_site734],9.64

row,Sequence,gcPBM binding intensity (ln)
1,TAAAATTTATAAACTACACACATATAAATAGTAATA [CACACA_site7708],9.98
2,TAAACACCCATATAAACACACATATAAACACCCATA [CACACA_site5382],10.3
3,TTTATTTATTTTTAACGTACGCACACATATAAATAT [XGTACX_site4042],10.5
4,CACATACACATACAAACACACATTATATATATATAT [CACACA_site8460],10.4
5,CATCCATTATTAATATGTACATATGTATATATATTA [XGTACX_site1318],9.68
6,GAAAAAAAAAAAAGGGGTACATTTATTTTATCAATA [XGTACX_site8331],9.35
7,TTTTTTTTTTTTTTTTTTTTTTTCTTTATTTTTTTT [CACACA_negctrl_site703],8.77
8,AAAATTTAAAAATGGACACACACAAAAAATAATACT [CACACA_site7972],10.3
9,AACTTTTTACAAACAGGTACGCATATATATATATAT [XGTACX_site5081],9.84
10,AATAATTATTTGTATAGTACAATATACAAAAGATGA [XGTACX_site4312],9.72
11,ATATATATATGTGCCAGTACACATGTATACATTATA [XGTACX_site3899],9.79
12,AAAATTAATAAATAAACACACATATTTATATTTATA [CACACA_site7266],9.69
13,TATAAATATAGACACACACACACACCGAAGCGTAGC [CACACA_site6180],10.6
14,TCGTCACTTTAATATTGTACATATATATATATATAT [XGTACX_site8046],9.93
15,TATATCTACTTAAAAAGTACGTAAATTATAAGCTAT [XGTACX_site6420],9.32
16,TGTGTAAATATGTATACACACATATCTGATCAATAT [CACACA_site7507],9.92
17,TATATGTATTTATATACACACATATTCTTTTTACAC [CACACA_site8320],9.93
18,TCCTTTTCATCTTGTAGTACGGAAATGTAGCTCCAA [XGTACX_site8563],9.45
19,AATATTTTGAACAACAGTACTCTTTCTTTCTTTCTT [XGTACX_site7212],9.51
20,ACCTCACAAATGAATACACACAAACATATAGATTTA [CACACA_site6862],10.1
21,ATATATAAAATTATATGTACATATATCTATTTATAA [XGTACX_site3713],9.63
22,GATTAAAACTTTAACTGTACATAATAATTATCAATC [XGTACX_site5938],9.51
